# Hit rate of the full screen: of about 310,000 compounds, about 2,200 (0.71%) showed an effect of 50% or more. Effects have a minus sign here. The list shows a part of the results.
# Target: human ether-à-go-go-related gene (hERG) potassium channel (human, UniProt Q12809)
# Assay: primary screen, population patch clamp on CHO cells stably expressing hERG
# human ether-à-go-go-related gene (hERG) potassium channel, sequence (Q12809 whole entry, looked up): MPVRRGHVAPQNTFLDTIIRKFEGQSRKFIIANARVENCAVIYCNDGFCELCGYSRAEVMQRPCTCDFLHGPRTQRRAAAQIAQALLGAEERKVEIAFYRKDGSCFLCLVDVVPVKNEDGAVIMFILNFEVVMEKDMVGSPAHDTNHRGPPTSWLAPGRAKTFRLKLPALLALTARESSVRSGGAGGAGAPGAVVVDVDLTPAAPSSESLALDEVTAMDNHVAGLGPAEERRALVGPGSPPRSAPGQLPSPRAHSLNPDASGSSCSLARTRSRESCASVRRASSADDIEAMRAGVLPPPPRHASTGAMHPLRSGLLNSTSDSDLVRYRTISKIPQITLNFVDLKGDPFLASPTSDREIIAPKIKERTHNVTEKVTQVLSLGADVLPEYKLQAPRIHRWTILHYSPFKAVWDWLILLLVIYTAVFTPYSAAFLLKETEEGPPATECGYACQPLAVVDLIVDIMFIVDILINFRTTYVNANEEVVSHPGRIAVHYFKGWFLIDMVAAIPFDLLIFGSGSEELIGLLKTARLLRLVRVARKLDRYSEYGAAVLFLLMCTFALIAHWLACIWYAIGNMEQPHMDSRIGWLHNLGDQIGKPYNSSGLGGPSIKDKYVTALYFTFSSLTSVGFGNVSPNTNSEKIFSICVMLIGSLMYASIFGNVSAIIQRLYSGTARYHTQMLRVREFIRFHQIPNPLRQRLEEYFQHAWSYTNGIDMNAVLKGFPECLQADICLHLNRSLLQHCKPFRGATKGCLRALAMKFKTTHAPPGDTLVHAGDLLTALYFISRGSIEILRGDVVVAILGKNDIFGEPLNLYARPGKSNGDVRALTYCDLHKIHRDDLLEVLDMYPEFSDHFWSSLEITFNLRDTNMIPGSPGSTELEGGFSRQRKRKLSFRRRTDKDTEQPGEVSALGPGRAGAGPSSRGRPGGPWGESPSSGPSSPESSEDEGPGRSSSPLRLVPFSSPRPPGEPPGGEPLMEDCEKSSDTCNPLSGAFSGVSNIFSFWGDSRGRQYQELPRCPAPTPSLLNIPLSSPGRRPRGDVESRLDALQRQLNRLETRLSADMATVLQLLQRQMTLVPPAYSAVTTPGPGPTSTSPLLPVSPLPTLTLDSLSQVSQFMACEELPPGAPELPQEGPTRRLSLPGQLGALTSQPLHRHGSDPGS
row,Structure (SMILES),"hERG current change (%, negative = inhibition) at 1uM"
1,CCC(=NCc1cccnc1)c1c(O)n(-c2ccc(C)cc2)c(=O)[nH]c1=O,9.96%
2,Cc1cc(C)cc(NC(=S)N2CCC(NC(=O)c3ccco3)CC2)c1,11.4%
3,O=C(NNS(=O)(=O)c1ccc(Cl)cc1)c1cc(-c2ccccc2)nc2ccccc12,13.7%
4,O=C(NCC(=O)N1CCCCCC1)c1ccc(OC(F)F)cc1,10.4%
5,NC(=O)c1ccc[n+](CC(=O)c2ccc(F)cc2)c1.[Br-],14%
6,COC(=O)c1cccc(S(=O)(=O)N2CCOCC2)c1,6.02%
7,Brc1ccc(OCc2ccccc2)c(CNCC2CCCO2)c1.Cl (stereo not drawn),0.438%
8,CC(OC(=O)CCCc1nc2ccccc2s1)C(N)=O (stereo not drawn),2.95%
9,CC(C)N1CCC(N2CCN(CCCn3cccn3)CC2CCO)CC1 (stereo not drawn),-2.05%
10,Cc1ccc(C)c(OCCC(=O)OCC(=O)N2CCN(c3ccccc3)CC2)c1,1.78%
11,Cc1ccc(C(=O)C2C(c3cccs3)NC(=O)NC2(O)C(F)(F)F)cc1 (stereo not drawn),8.28%
12,Cc1ccc(C(=O)OCC(=O)c2c[nH]c3ccccc23)cc1S(=O)(=O)N1CCCCC1,0.754%
13,O=C(NCc1ccc2c(c1)OCO2)c1cc(Cl)ccc1Cl,13.4%
14,CCCn1cc(S(=O)(=O)c2ccc(OC)cc2)c(=O)c2cc(OC)ccc21,1.94%
15,O=C(NCc1ccccc1)c1ccc(/C=N/O)nc1,8.57%
16,CCc1ccccc1NC(=O)CSc1nc2[nH]c(=O)cc(O)c2s1,13.2%
17,Cc1ccc2c(c1)c1c(n2CC(O)CN2CCOCC2)CCCC1.Cl (stereo not drawn),13%
18,NC(=O)C1CCN(C(=O)c2cc3c(s2)CCCC3)CC1,0.801%
19,Cc1cccc(NC(=S)NNC(=O)COc2ccc(Cl)cc2Cl)c1,3.42%

row,Structure (SMILES),"hERG current change (%, negative = inhibition) at 1uM"
1,COc1ccc(/C=N/NS(=O)(=O)c2ccccc2)cc1OS(=O)(=O)c1ccc(C)cc1,15.8%
2,CCN1CCN(CCNC(=O)c2cn(C(C)c3ccccc3F)nn2)CC1 (stereo not drawn),12.6%
3,COc1ccc2cc(C=NS(=O)(=O)c3ccc(C)cc3)n(C)c2c1,13.7%
4,CC(C)C1CC(=O)NC(SCC(=O)Nc2ccc(Br)cc2)=C1C#N (stereo not drawn),5.76%
5,O=C(C1CCCO1)N1CCN(Cc2c(O)ccc3ccccc23)CC1 (stereo not drawn),9.81%
6,CC(=O)Nc1ccc(C(=O)NNC(=O)C2CC2)cc1,19.4%
7,C=CCOc1ccc(C(=O)Nc2ccc3c(c2)n(C)c(=O)n3C)cc1,4.59%
8,CCCCN(C)CCNC(=O)c1cc2cc3ccc(OC)cc3nc2o1,5.74%
9,Cc1cccc(NC(=O)c2ccc(S(=O)(=O)N3CCCCC3C)cc2)n1 (stereo not drawn),7.3%
10,CC1(C)OC(=O)C(C(c2ccccc2)C(C#N)C(N)=O)=C(O)O1.CCN(CC)CC (stereo not drawn),0.916%
11,O=C(N/N=C/c1cccc(C(F)(F)F)c1)C1CCN(c2ncc(C(F)(F)F)cc2Cl)CC1,2.51%
12,CC12CCC(=O)N1C(C(=O)N1CCN(c3ccc(C(F)(F)F)cc3[N+](=O)[O-])CC1)CS2 (stereo not drawn),-1.99%
13,Cc1ccccc1C(=O)NC1CCN(Cc2ccccc2)CC1,2.11%
14,O=C(Nc1ccccc1NC(=O)c1csnn1)c1csnn1,18%
15,COc1cc(NC(=O)Cn2nnc(-c3ccccc3N)n2)cc(OC)c1,10.9%
16,CC(=O)C1=C(O)C(=O)N(c2ccc(Br)cc2)C1c1ccccc1[N+](=O)[O-] (stereo not drawn),0.772%
17,Cc1cc(N2C(=O)C(=O)/C(=C(/O)c3ccc(F)cc3)C2c2ccc(Cl)cc2)no1 (stereo not drawn),10.5%
18,Cc1cc(C)nc(SCC(=O)N/N=C/C=C/c2ccccc2)n1,-2.91%
19,CC(=O)N1CCN(C(=O)CCC(=O)O)CC1,2.11%

row,Structure (SMILES),"hERG current change (%, negative = inhibition) at 1uM"
1,CCn1cnc2sc(C(=O)Oc3ccc(Br)cc3)c(C)c2c1=O,8.8%
2,Cc1ccc(S(=O)(=O)C2(C(=O)NCCc3ccccc3)CC2)cc1,1.67%
3,Cn1nc(N)nc1N1CCN(c2ccc(F)cc2)CC1,10.1%
4,CCCOc1ccc(C(=O)NC2CCSc3ccccc32)cc1 (stereo not drawn),8.1%
5,O=C(Cc1c[nH]c2ccccc12)N1CCN(c2ccccc2)CC1,13.6%
6,O=C(CCc1ccccc1)Nc1sc2c(c1C(=O)O)CCCC2,20.1%
7,COc1ccc(C(=O)NNC(=O)c2ccncc2)cc1[N+](=O)[O-],19.8%
8,COc1ccc(NC(=O)CSc2nc(=O)n(CCN3CCOCC3)c3c2CCC3)c(OC)c1,1.42%
9,Cc1ccc(C2=NC3(CCCCC3)N=C2SCC(=O)Nc2ccc3c(c2)OCCO3)cc1,9.55%
10,O=C1CCCC(=O)C1C(c1ccc(Cl)cc1)C1C(=O)CCCC1=O,13.5%
11,CC(C)(C)C#CC(CCc1ccccc1)OS(N)(=O)=O (stereo not drawn),10.3%
12,COCC(C)n1c(SCc2ccc(C(=O)OC)o2)nc2ccccc2c1=O (stereo not drawn),12.7%
13,O=C(NCCc1ccccc1)c1ccc2c(c1)S(=O)(=O)N=C1CCCCCN12,10%
14,O=C(Nc1cccc(-c2nc3ccccc3[nH]2)c1)c1ccccn1,9.76%
15,Cc1cc(NC(=O)c2ccc(S(=O)(=O)N3CCOCC3)cc2)nc2c1c(=O)oc1ccccc12,4.35%
16,CCC(C)NC(=O)c1ccc(CS(=O)(=O)c2ccc(OC)cc2)o1 (stereo not drawn),6.38%
17,CCOc1cccc(C(=O)NC(c2ccccc2)C(C)C)c1 (stereo not drawn),5.97%
18,COc1ccc(CC(=O)NCC(=O)N/N=C/c2c[nH]c3ccccc23)cc1,14%
19,COc1ccc(COC(=O)c2ccc(S(=O)(=O)N3CCCCC3)cc2)cc1OC,8.5%
